Experimental findings from PubChem BioAssay AID1745853 (National Center for Advancing Translational Sciences (NCATS), 2022) are described below.

Molecules are shown by their SMILES. The list shows a part of the results. These are further read-outs of the screen, such as a control signal, another cell line or another target. No call is given for them.

Holding throughout (assay): Primary Screen for Target Class Profiling of Small Molecule Inhibitors of Methyltransferases
The target of experiment [1] is Glycine N-methyltransferase (Homo sapiens) (UniProt Q14749). The conditions noted are these: purified enzyme, MTase-Glo SAH luminescence; measured here: GNMT inhibition; at 40 µM; stronger effect = lower value. The essentials: (§1)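 Each enzyme was assayed with SAM and its substrate. SAH formation detected by MTase-Glo luminescence; single-point 40 uM screen[…].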

Experiment [2] has as its target Guanidinoacetate N-methyltransferase (Homo sapiens) (UniProt Q14353). The conditions noted are these: purified enzyme, MTase-Glo SAH luminescence; measured here: GAMT inhibition; at 40 µM; stronger effect = lower value. An outline of the steps:
as §1

The target of experiment [3] is Histamine N-methyltransferase (Homo sapiens) (UniProt P50135). The conditions noted are these: purified enzyme, MTase-Glo SAH luminescence; measured here: HNMT inhibition; at 40 µM; stronger effect = lower value. The essentials: as §1
Experiment [4] addresses Nicotinamide N-methyltransferase (Homo sapiens) (UniProt P40261). Particulars: purified enzyme, MTase-Glo SAH luminescence; measured here: NNMT inhibition; at 40 µM; stronger effect = lower value. The essentials:
as §1

For experiment [5], the target named is Phenylethanolamine N-methyltransferase (Homo sapiens) (UniProt P11086). Particulars: purified enzyme, MTase-Glo SAH luminescence; measured here: PNMT inhibition; at 40 µM; stronger effect = lower value. An outline of the steps:
as §1
% is set by controls: 0 for no effect and ±100 for the full control effect.

In the case of `Cc1cc(N2C(=O)Cn3cccc3C2C(=O)NC2CCC(C)CC2)ccc1Br` (configuration not stated), the activity change, negative = inhibition was -3.63% in experiment [1]; 7.11% in experiment [2]; 0.014% in experiment [3]; -1.26% in experiment [4]; -2.92% in experiment [5].
Regarding `CNC(=O)COC(=O)N1CCC(CCc2ccc(Cl)cc2)CC1`, the activity change, negative = inhibition is -6.08% in experiment [1]; -2.5% in experiment [2]; 1.01% in experiment [3]; -15.5% in experiment [4]; -3.58% in experiment [5].
In the case of `CCOc1ccc(CCNC(=O)Cn2ccc3cc(S(=O)(=O)N4CCCCC4)ccc32)cc1`, the activity change, negative = inhibition in experiment [1] was -3.32%; in experiment [2] it was 0.826%; in experiment [3], -7.63%; in experiment [4], -9.97%; in experiment [5] it was -8.02%.
Taken in the same sequence, the figures for `Cc1nc(-c2c3n(c(=O)n(CC(=O)NCc4cccs4)c2=O)CCCCC3)no1` were -2.91%, 0.933%, 1.14%, -1.65% and 11.8%.
`Cc1ccc(CSc2nnc3n(C)c(=O)c4ccc(C(=O)NC5CCCCC5)cc4n23)cc1`: the activity change, negative = inhibition in experiment [1] worked out at 2.24%; in experiment [2] it was 3.58%; in experiment [3] it was 5.55%; in experiment [4] it was 0.819%; in experiment [5], 7.79%.
Taken in the same sequence, the figures for `CCC[C@H](N)C(=O)N1CCC2(CCC(=O)N(Cc3cnc(C)cn3)C2)CC1` were -2.92%, -2.78%, -2.04%, -7.13% and -3.24%.
As to `O=c1nc2c(-c3ccccc3Cl)n[nH]n2c2ccc(Cl)cc12`, the activity change, negative = inhibition was -16.5% in experiment [1]; 1.25% in experiment [2]; 6.33% in experiment [3]; -1.61% in experiment [4]; -1.26% in experiment [5].
With `Cc1cccc(Cn2nc3n(C(C)C)c(=O)c4ccc(C(=O)NC5CCCCC5)cc4n3c2=O)c1`, the activity change, negative = inhibition in experiment [1] stood at 6.27%; in experiment [2] it was 0%; in experiment [3] it was 7.26%; in experiment [4], 7.08%; in experiment [5], 6.44%.
For the compound `CC(C)OCCCn1c(=O)c2ccccc2n2c(CCC(=O)Nc3ccc(F)cc3)nnc12`, the activity change, negative = inhibition in experiment [1] is -8.61%; in experiment [2], 5.95%; in experiment [3], 2.54%; in experiment [4] it was 2.53%; in experiment [5] it was -5.59%.
For `CC(C)Cn1c(=O)c2ccccc2n2c(=O)n(Cc3c(F)cccc3Cl)nc12`, in that order: 2.85%, 0%, 5.46%, -8.55% and 1.51%.
For `COC(=O)c1cc2n(n1)CC(C)(C(=O)NC1CCCCC1)N(Cc1ccccc1OC)C2=O` (configuration not stated), in that order: 5.65%, 6.94%, 11.5%, 2.81% and 4.25%.
Regarding `NC1(c2ccc(-c3nc4ccn5c(=O)[nH]nc5c4cc3-c3ccccc3)cc2)CCC1`, the activity change, negative = inhibition is -92.9% in experiment [1]; 2.82% in experiment [2]; -32.5% in experiment [3]; -36.7% in experiment [4]; -15.8% in experiment [5].
For `CCC(C)NC(=O)c1ccc2c(=O)n(C(C)C)c3nn(Cc4ccccc4C)c(=O)n3c2c1` (configuration not stated), in that order: -0.228%, 0%, -1.66%, 1.39% and 1.26%.
For `CCN(CC)CCCS(=O)(=O)N[C@H](CCc1ccccc1)c1nc(Cc2ccc(Br)cc2)no1`, in that order: 1.96%, 15.7%, -1.95%, -0.727% and 4.4%.
In the case of `COc1ccc2cc3n(c2c1)CC(C)(C(=O)NC1CCCCC1)N(CCN1CCN(C)CC1)C3=O` (configuration not stated), the activity change, negative = inhibition in experiment [1] was 3.23%; in experiment [2], -1.61%; in experiment [3], 3.09%; in experiment [4], 2.19%; in experiment [5], -1.89%.
On to `C[C@@H]1C/C=C/C=C\C=C\C=C\[C@H](O[C@@H]2O[C@H](C)[C@@H](O)[C@H](N)[C@@H]2O)C[C@@H]2O[C@](O)(C[C@@H](O)C[C@H]3O[C@@H]3/C=C/C(=O)O1)C[C@H](O)[C@H]2C(=O)O`, for which the figures for the activity change, negative = inhibition in experiment [1] and in experiment [3] were 2.26% and 0.142%, respectively.
On to `CCC[C@H](N[C@@H](C)C(=O)N1[C@H](C(=O)O)C[C@@H]2CCCC[C@@H]21)C(=O)O`, for which the activity change, negative = inhibition in experiment [1] was 0.689%; in experiment [2] it was -7.42%; in experiment [3] it was -1.96%; in experiment [4] it was -15%; in experiment [5], -8.01%.
Regarding `CC(C)NS(=O)(=O)c1ccc2[nH]c(=O)[nH]c2c1`, the activity change, negative = inhibition is 6.19% in experiment [1]; 0.187% in experiment [2]; 4.93% in experiment [3]; -2.14% in experiment [4]; -1.34% in experiment [5].
Taken in the same sequence, the figures for `COc1ccc(NC(=O)CSc2nnc3n(CCC(C)C)c(=O)c4ccccc4n23)cc1` were -0.207%, 0%, 11.7%, -7.07% and 7.42%.
For `O=C1NC(=O)/C(=C/c2ccc(-c3ccc(F)cc3O)o2)S1`, in that order: -52.7%, -5.68%, -6.11%, -10.2% and -2.28%.
Taken in the same sequence, the figures for `COc1cccc2nc(-c3cccs3)nc(NN3C(=O)C=C(C)C3=O)c12` were -19.8%, -11%, -5.29%, -25.9% and -10.1%.
Consider `CC(C)CCNC(=O)Cn1ccc2cc(S(=O)(=O)N3CCCCC3)ccc21`, for which the activity change, negative = inhibition is 3.86% in experiment [1]; 1.45% in experiment [2]; 3.52% in experiment [3]; 0.929% in experiment [4]; -0.554% in experiment [5].
Taken in the same sequence, the figures for `O=C(NC1Cc2ccccc2N(C[C@@H](O)CO)C1=O)c1cc2cc(Cl)sc2[nH]1` (some centres not stated) were 3.39%, 6.81%, 6.01%, -12.1% and -1.84%.
For `Cc1cccnc1NCCNC(=O)c1ccc(S(N)(=O)=O)cc1`, in that order: -0.455%, -2.89%, 1.21%, 1.34% and -3.21%.
Taken in the same sequence, the figures for `CC(C)C1CN(c2ccc(C#N)cn2)CCC(=O)N1Cc1ccc(F)cc1` (configuration not stated) were -1.25%, -0.155%, -2.42%, -2.58% and -1.99%.
For `COc1ccc(C(=O)NCc2cc(C(C)C)no2)cc1OC1CCN(C)CC1`, the activity change, negative = inhibition in experiment [1] is 0.737%; in experiment [2] it was -0.152%; in experiment [3], -14.2%; in experiment [4] it was -14.2%; in experiment [5], 2.2%.
For `O=C(c1ccc(Cl)cc1)N1CC2(CCCN2C2COC2)Cc2ccccc21` (configuration not stated), the activity change, negative = inhibition in experiment [1] is -5.22%; in experiment [2] it was -4.04%; in experiment [3], -3.77%; in experiment [4], -5.19%; in experiment [5] it was 0.88%.
Taken in the same sequence, the figures for `c1ccc(CN2CCc3[nH]cnc3C2c2ccc(-c3ccccn3)cc2)nc1` (configuration not stated) were -6.93%, -4.49%, -14.6%, -10.7% and 2.87%.
Taken in the same sequence, the figures for `C1CCC(c2noc(COCC3CC3)n2)NC1` (configuration not stated) were -2.71%, -2.93%, -1.86%, -4.29% and -4.77%.
